Source: PubChem BioAssay AID624171 (National Center for Advancing Translational Sciences (NCATS), 2012)
Hit rate of the full screen: of about 410,000 compounds, about 1,200 (0.29%) were called active. The shares of active, inactive and inconclusive entries below differ from those in the screen. The call rests on the fitted dose curve; in most records, active means well fitted activation curve with a large enough effect; inconclusive means small, poorly fitted or top-dose-only effect; inactive means flat fitted curve, though single readings scatter. Where the call is inconclusive, the potency comes from a doubtful curve fit.

assay: qHTS of Nrf2 Activators; conditions: AREc32 ARE-luciferase reporter (MCF7-derived line), luminescence, 24 h; activation: at 46.1 µM (top of the series); further: nearly all actives have a fitted effect of over 65% in size
How it was run: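 Luciferase luminescence (Steady-Glo, 30 min at room temperature) served as the read-out of ARE activation in AREc32 cells treated with compounds for 24 hr at 37 deg C.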
Potency means the concentration at half of the fitted maximal effect; tags describe the fitted curve by direction and shape.

Potency, active:
O=C(Nc1ccccn1)c1ccc2ccccc2n1 3.16 µM
Cn1c(=O)n(C)c2cc(NS(=O)(=O)c3ccccc3)c(NCc3ccccc3)cc21 12.6 µM
Nc1cc(C(F)(F)F)ccc1NCCc1ccccn1 12.6 µM
Clc1ccc2c(c1)C1OCCC1C(c1ccco1)N2 (stereo not given) 5.62 µM
O=C(NNC(=O)c1ccc([N+](=O)[O-])o1)c1ccccc1 22.4 µM
Cc1ccc(C(=O)N/N=C/c2ccc(-c3ccc(Br)cc3[N+](=O)[O-])o2)o1 7.94 µM
O=C(Nc1ccccn1)c1ccc(Br)s1 15.8 µM
O=C(CSc1nc2ccc([N+](=O)[O-])cc2[nH]1)c1ccc(Cl)cc1 11.2 µM

Potency, inactive:
CC(=O)c1c(C)[nH]c(C(=O)OCc2cccc(C)c2)c1C
Cc1cccc(N2CCN(S(=O)(=O)c3ccc4c(c3)CCCN4C(=O)C3CCC3)CC2)c1C
CCC(=O)N1CCc2cc(S(=O)(=O)NCCC(=O)N3CCN(c4cccc(C)c4)C(C)C3)ccc21 (stereo not given)
CC(C)CN1C(=O)C(=O)N(CC(=O)NC(C)CCc2ccccc2)C1=O (stereo not given)
COc1ccc(-n2sc3ccc(F)cc3c2=O)cc1
Cc1ccc(S(=O)(=O)Nc2nc(C)c(NC(=O)Nc3ccc(Cl)cc3Cl)s2)cc1
Cc1cc(Nc2cccc(C(F)(F)F)c2)nc2ccc(NC(=O)c3ccc(N(C)C)cc3)cc12
CC(C)C(=O)NC(c1ccco1)c1ccc2cccnc2c1O (stereo not given)
Cc1cccc(/C=C/c2onc(C)c2S(=O)(=O)N2CCC(C(=O)N3CCC(C)CC3)CC2)c1
CCC(CC)C(=O)Nc1cccc(-c2nc3cccnc3s2)c1C
COc1ccccc1-c1nnc(Nc2nc3c(OC)cccc3s2)o1
COc1ccc(S(=O)(=O)N2CCOC2CNC(=O)C(=O)NCCc2ccccc2OC)cc1C (stereo not given)
CCN(Cc1nc2ccccc2c(=O)[nH]1)C(=O)c1cccc(S(=O)(=O)N2CCc3ccccc32)c1
Cn1c(CCCOc2ccc(Cl)cc2Cl)nnc1SCC(=O)Nc1nccs1
O=C(NC1CCN(S(=O)(=O)c2ccc(Cl)cc2)CC1)c1cccnc1
COc1ccc(C(N)c2csc(Nc3ccc(S(C)(=O)=O)cc3)n2)cc1 (stereo not given)
C/C(=N/NC(=O)c1cc(-c2cccc([N+](=O)[O-])c2)n[nH]1)c1cccc(O)c1
O=C(Nc1ccccc1Cl)c1ccc(F)c(S(=O)(=O)NCc2ccc(Cl)c(Cl)c2)c1
O=C(C1=C[C@H](c2ccc3c(c2)OCO3)C[C@H](OCCCCO)O1)N1CCN(Cc2ccc3c(c2)OCO3)CC1
O=C(Nc1ccccc1)c1nc[nH]c1C(=O)NCCNC(=O)c1[nH]cnc1C(=O)Nc1ccccc1

Potency, inconclusive:
CCCCN1Cc2c(nc3cc(-c4ccco4)[nH]n3c2=O)C1=O 11.2 µM [activator, partial curve, poor fit]
CN(CC(=O)Nc1ccc(F)cc1)C(=O)COC(=O)/C=C/c1ccccc1[N+](=O)[O-] 12.6 µM [activator, partial curve]
COC(=O)C(C)Sc1ncnc2c1nnn2-c1ccc(F)cc1 (stereo not given) 22.4 µM [activator, single point]
Cc1[nH]n(-c2ccccc2)c(=O)c1C(C[N+](=O)[O-])c1ccc(Cl)cc1 (stereo not given) 22.4 µM [activator, single point]
O=C(Nc1ccccn1)c1sc2cc([N+](=O)[O-])ccc2c1Cl 12.6 µM [activator, partial curve, poor fit]
COc1cc(OC)c(NC(=O)COCc2cc(-c3cccs3)on2)cc1Cl 1.78 µM [activator, partial curve, poor fit]
Cc1cccc2c(=O)n(C(=O)c3ccccc3)c(N)nc12 0.708 µM [activator, full curve, poor fit]
CC(C)N1C/C(=C/c2ccsc2)C(=O)/C(=C/c2ccsc2)C1 5.62 µM [activator, single point]
Cc1nc(NC(=O)c2ccc(Br)o2)sc1C 15.8 µM [activator, partial curve, poor fit]
CCOC(=O)c1sc(=NC(=O)c2ccccc2)n(C)c1C 31.6 µM [activator, partial curve, poor fit]
CN(C)CCCN(C(=O)CCSc1ccccc1)c1nc2cc3c(cc2s1)OCO3 20 µM [activator, single point]
CCC1=NN(C(=O)c2ccccc2O)C(O)(c2ccccc2)C1 (stereo not given) 15.8 µM [activator, partial curve, poor fit]
Cc1sc(NC(=S)NC(=O)c2ccccc2)c(C#N)c1C 10 µM [activator, partial curve]
COc1ccc2c(c1)-c1nc(NC(=O)c3ccco3)sc1CC2 11.2 µM [activator, partial curve]
O=Cc1c(NCc2ccco2)nc2ccccn2c1=O 3.55 µM [activator, partial curve, poor fit]
O=[N+]([O-])c1ccccc1N/N=C/c1ccccc1 3.98 µM [activator, single point]
O=C(O)CCCN1C(=O)/C(=C/C=C/c2ccco2)SC1=S 14.1 µM [activator, single point]
COc1cc2c(cc1Cl)/C(=C\CCN(C)C)c1ccccc1S2 2.51 µM [activator, full curve, poor fit]
CCN1CCN(Cc2c(O)ccc3c2O/C(=C\C=C\c2ccccc2)C3=O)CC1 17.8 µM [activator, partial curve, poor fit]
CC(=O)Nc1ccc2nc(NC(=O)c3ccco3)sc2c1 2 µM [activator, full curve, poor fit]
CCOC(=O)c1cc2c(=O)c3ccccc3oc2nc1C 11.2 µM [activator, partial curve]
O=C(CSc1nc2c(sc3ccccc32)c(=O)n1-c1ccccc1)NCc1ccco1 5.62 µM [activator, full curve]
Cc1ccccc1-c1nc(C#N)c(NCc2ccco2)o1 11.2 µM [activator, single point]
N#CC1CC(c2ccccc2)=NN1c1ccccc1[N+](=O)[O-] (stereo not given) 2.51 µM [activator, full curve, poor fit]
CN1CCN(Cc2nc3ccccc3c(=O)n2Cc2nc(-c3ccccc3F)cs2)CC1 20 µM [activator, single point]
COc1cccc(OC)c1C(=O)NC(=O)NNc1cc(C(F)(F)F)cc(C)n1 8.91 µM [activator, partial curve]
Cc1ccc(-c2nc(NC(=O)c3nn(C)cc3[N+](=O)[O-])sc2C)cc1C 4.47 µM [activator, single point]
COc1ccc(/C=C2/CCc3ccccc3C2=O)cc1CN1CCOCC1 22.4 µM [activator, single point]
O=c1c(Cl)c(Cl)cnn1Cc1nnc(-c2ccccc2Br)o1 3.55 µM [activator, single point]
COc1ccc(/C=C/C(=O)c2c(O)c(OC)c3occc3c2OC)cc1 25.1 µM [activator, single point]
COc1cccc(C=C2Cc3ccccc3C2=O)c1 22.4 µM [activator, partial curve, poor fit]
Cc1ccc(O)c(NC(=O)c2ccco2)c1 12.6 µM [activator, partial curve, poor fit]
COc1cc(/C=C/c2ccccc2)cc(OC)c1 15.8 µM [activator, single point]
C=CCN=C(NC#N)SCC(=O)c1cccc(OC)c1 3.98 µM [activator, full curve]
Cc1ccc(S(=O)(=O)/N=C(/NC(=S)Nc2cccc(C)c2)c2ccccc2)cc1 11.2 µM [activator, partial curve]
CCOc1cc(/C=C2\CN(C)C/C(=C\c3ccc(O)c(OCC)c3)C2=O)ccc1O 1.41 µM [activator, partial curve, poor fit]
O=C(CSc1nc(-c2ccco2)nc2cc(=O)[nH]n12)Nc1ccc(F)cc1 15.8 µM [activator, partial curve, poor fit]
CC(=O)n1cc(C(C[N+](=O)[O-])SCCN)c2ccccc21 (stereo not given) 22.4 µM [activator, single point]
O=C(Nc1nc(-c2ccccc2)cs1)c1ccc(Br)o1 22.4 µM [activator, single point]
CCOC(=O)C1=C(COC(=O)/C=C/c2cccc(OC)c2OC)NC(=O)NC1C (stereo not given) 14.1 µM [activator, single point]
Cc1cc(Nc2cccc([N+](=O)[O-])c2)c2cccc(C)c2n1 12.6 µM [activator, partial curve, poor fit]
CC1CC(C)CN(C(=O)COC(=O)c2ccc([N+](=O)[O-])o2)C1 (stereo not given) 15.8 µM [activator, single point]
